In all, about 150,000 compounds went through this assay and about 540 (0.36%) showed an effect of 50% or more. The list shows a part of the results.

The results in this text go back to ChEMBL document CHEMBL4888484, “Replenishing the malaria drug discovery pipeline: Screening and hit evaluation of the MMV Hit Generation Library 1 (HGL1) against asexual blood stage Plasmodium falciparum ,using a nano luciferase reporter read-out” (2022).

The test system of the experiment is Plasmodium falciparum. Nature of the experiment: Primary screen in NF54 nanoGlo assay, in single point, at 2uM, 72h; a lower Z score goes with more inhibition. Format: functional, Erythrocyte. The following applies: timepoint 72 hour.
In the case of `CN1CCCC2(CCN(C(=O)NCCc3ccccc3)CC2)[C@H]1C(=O)N1CCCC1`, the “% Inhibition” value was -4% and the Z score is listed as 0.84.
The corresponding values for `O=C(NCc1c(F)cccc1Cl)[C@H]1CC(=O)N(Cc2ccncc2)C1` are 0% and -0.05.
Take `COc1cccc(CN2CC[C@@](C)(O)[C@H](N3CCCC3)C2)c1OC`: the “% Inhibition” value turned out to be 7% and the Z score is recorded as -0.91.
For `O=C(Nc1nc(CC2CC2)ns1)c1cnn(CCF)c1`, in that order: -7% and 0.89.
Turning to `O=C(NC[C@H](O)c1ccc2ccccc2c1)c1cc(F)c(O)c(F)c1`, the “% Inhibition” value is on record as -17% and the Z score stood at 2.09.
`Cc1nc(N2CCCC2)c2c(C(=O)Nc3cc(F)ccc3F)c(C)oc2n1`: the “% Inhibition” value is -6% and the Z score amounted to 0.87.
The corresponding values for `Cc1ccc2nc3c(n2c1)[C@@H](c1cc(Cl)c(C)c(Cl)c1)CC(=O)NC3` are 3% and -0.62.
The corresponding values for `O=C(c1cc2ccccc2cc1O)N1CCC(CO)(CN2CCCC2)CC1` are 11% and -1.1.
The corresponding values for `COc1ccc(Cn2nc(C)cc2NC(=O)NCc2nccn2C)cc1OC` are -7% and 0.98.
As to `C[C@@H](CCc1ccccc1)CNCc1ccc(C(=O)O)c(C2CC2)n1`, the “% Inhibition” value is -12% and the Z score came out at 1.08.
For `CCCCC(=O)c1ccccc1C(=O)c1ccc2[nH]c(NC(=O)OC)nc2c1`, in that order: -17% and 2.14.
For the compound `COc1nc(C)c(C(=O)N(C)Cc2nc3ccccc3c(=O)[nH]2)s1`, the “% Inhibition” value was -9% and the Z score was 1.12.
For `Cc1ccnc(NS(=O)(=O)c2cc(-c3nc(C)c(C(=O)N4CCC(C)CC4)s3)n(C)c2C)c1`, in that order: -13% and 1.42.
For `CN(CCCNC(=O)c1c(N2CCCC2=O)c2cc(F)ccc2n1C)C1CCCCC1`, in that order: 0% and -0.02.
For `c1nc(NCc2cn3c(n2)CCCC3)c2sccc2n1`, in that order: -12% and 1.53.
In the case of `Cc1nonc1CC(=O)NCCc1cnn(-c2ccccc2)c1`, the “% Inhibition” value is -4% and the Z score is 0.5.
In the case of `CCc1ccc([C@@H]2C[C@H](c3ccccc3)n3nnnc3N2)cc1`, the “% Inhibition” value came to 1% and the Z score is listed as -0.25.
The corresponding values for `C=C(C)CN(CC)C(=O)[C@@H]1C[C@H](NC(=O)C2CCCCC2)CN1C` are -3% and 0.4.
For `COCc1ncc(C)n1CC1CN(C(=O)C2CC=CC2)C1`, in that order: 8% and -1.08.
The corresponding values for `C[C@@H](Cc1nnc(NC(=O)c2ccco2)s1)c1ccccc1` are -6% and 1.09.
Turning to `CCOc1cc2c(cc1CNCCCc1csc(N)n1)CCC2`, the “% Inhibition” value was -2% and the Z score is 0.34.
The corresponding values for `O=C(NCc1ccccc1)c1cn2ccncc2n1` are -7% and 0.8.
For `COCCOc1cccc(C(=O)N[C@H](C(=O)OC(C)(C)C)c2ccccc2)c1`, in that order: -4% and 0.8.
The corresponding values for `O=C(NCC(O)c1ccccc1Cl)[C@H]1CCCCN1` (stereo partly specified) are -2% and 0.28.
As for `CCC(CC)C(=O)Nc1cc(C(=O)OC)cc(C(=O)OC)c1`, the “% Inhibition” value was determined as 3% and the Z score is -0.4.
Consider `CN(CC1CCC1)C(=O)c1sccc1C1CC1`, for which the “% Inhibition” value is recorded as -7% and the Z score worked out at 0.96.
For `O=C(CCc1ccco1)NCC1(c2ccccc2Cl)CCOCC1`, in that order: -17% and 1.54.
As for `Cc1sc([C@@H]2CCCO2)nc1-c1ccc2c(c1)CC(=O)N2C`, the “% Inhibition” value turned out to be 3% and the Z score is -0.33.
Consider `CCN(CC)c1ccc(CNc2cncc(CO)n2)cc1F`, for which the “% Inhibition” value was -11% and the Z score is reported as 1.76.
For `CCN(C(=O)NCc1ccc(C)nc1OC)[C@@H](C)CS(C)(=O)=O`, in that order: 8% and -1.04.
For `O=C(NCc1cccnc1)NCC1(c2ccccc2)CC1`, in that order: 4% and -0.47.
The corresponding values for `CCCNC(=NCCc1cccs1)NCc1nc(C2CC2)no1` are -2% and 0.27.
For `CCNC(=O)N1CC[C@H](CCOc2ccccc2)C1`, the “% Inhibition” value is -7% and the Z score is 1.08.
With `Fc1ccccc1CN1CCC(CNc2ccc3nnnn3n2)CC1`, the “% Inhibition” value is recorded as -18% and the Z score came to 3.47.
The corresponding values for `CC1(C)Oc2ccccc2O[C@]1(O)c1ccc2ccccc2n1` are 12% and -1.19.
For `COc1cccc(COCC(=O)N[C@H](c2ccc(F)cc2)C(C)C)c1`, in that order: -3% and 0.26.
The corresponding values for `CN1C[C@@H](CNC(=O)CCCc2ccc(C(C)(C)C)cc2)CC1=O` are -10% and 1.45.
`O=C(N[C@H]1CCOC1)c1ccccc1N1CCS(=O)(=O)CC1`: the “% Inhibition” value is reported as 7% and the Z score was -1.39.
For `Cc1ccc(-c2c(C(=O)N3CCN(C(C)C)CC3)nc3ccccn23)cc1`, in that order: -18% and 2.98.
For `OCC[C@H]1COCCN1c1ncc(Cl)cn1`, in that order: 10% and -1.28.
For `Cc1cc(C)c(-c2cc(C(=O)N(CCC(=O)N3CCCCC3)CC(C)C)no2)c(C)c1`, in that order: -28% and 2.51.
Take `CCN1C[C@@H](C(=O)N2CCN(Cc3ccncc3)CC2)CC1=O`: the “% Inhibition” value is -6% and the Z score came out at 0.73.
`Cc1cc(S(=O)(=O)N2CC3(CCC3(F)F)C2)sc1C`: the “% Inhibition” value is on record as -11% and the Z score was determined as 1.94.
